Assay results reported in PubChem BioAssay AID1159614 (National Center for Advancing Translational Sciences (NCATS), 2016).
Hit rate of the full screen: of about 45,000 compounds, about 65 (0.1%) were called active. Calls follow the shape of the dose curve; as a rule, active = well fitted activation curve with a large enough effect; inconclusive = small, poorly fitted or top-dose-only effect; inactive = no such curve, though single readings can be large or run the other way. Some of the results follow.

Target: Galactocerebrosidase (Homo sapiens) (UniProt P54803)
Chain of UniProt P54803 (P54803 whole entry, looked up): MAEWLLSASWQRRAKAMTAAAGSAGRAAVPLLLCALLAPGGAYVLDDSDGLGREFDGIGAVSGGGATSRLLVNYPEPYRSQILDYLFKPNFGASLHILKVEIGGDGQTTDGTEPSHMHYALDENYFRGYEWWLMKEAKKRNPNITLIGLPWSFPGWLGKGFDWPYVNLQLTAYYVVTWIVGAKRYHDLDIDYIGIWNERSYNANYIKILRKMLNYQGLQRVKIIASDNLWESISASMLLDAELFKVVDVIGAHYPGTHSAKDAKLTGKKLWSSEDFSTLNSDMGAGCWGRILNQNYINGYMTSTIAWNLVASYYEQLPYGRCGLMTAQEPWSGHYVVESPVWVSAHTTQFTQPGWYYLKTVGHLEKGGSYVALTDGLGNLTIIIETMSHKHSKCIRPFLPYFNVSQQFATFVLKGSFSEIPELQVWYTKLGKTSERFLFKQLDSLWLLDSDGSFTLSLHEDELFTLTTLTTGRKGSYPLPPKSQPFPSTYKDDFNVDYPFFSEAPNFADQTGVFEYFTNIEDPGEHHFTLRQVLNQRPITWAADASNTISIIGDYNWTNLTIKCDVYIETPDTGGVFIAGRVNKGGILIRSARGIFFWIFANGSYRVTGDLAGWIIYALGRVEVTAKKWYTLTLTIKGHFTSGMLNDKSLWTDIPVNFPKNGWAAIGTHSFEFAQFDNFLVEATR
Assay: A Novel Cell-Based Assay to Identify Small Molecules for B -Galactocerebrosidase; also: 0% is about no effect; nearly all actives have a fitted effect of over 65% in size
Conditions: 145M-Twi-hGALC-G270D cells (Twitcher mouse brain line with human GALC G270D), HMU-beta-Gal fluorescence, 48 h; series mostly up to 57.5 µM; activation: at the top concentration
Procedure, shortened: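 Mutant human GALC (G270D), stably expressed in a Twitcher mouse brain cell line lacking endogenous GALC, is measured in live-treated cells via 6-hexadecanoylamino-4-methylumbelliferyl-β-galactoside hydrolysis (0.1 mM final, pH 5.2) with fluorescent detection.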

| Compound | activation |
| --- | --- |
| COC(=O)C1=C(C)N(C(C)C)C(=O)C1(NC(=O)c1ccccc1OC)C(F)(F)F (stereo not drawn) | inactive: -14.5% |
| NC(N)=NN=C(/C=C/c1ccc([N+](=O)[O-])o1)/C=C/c1ccc([N+](=O)[O-])o1 | inactive: -9.72% |
| CCCCCn1c(CCCNC(=O)c2ccc(Cl)cc2)nc2ccccc21 | inactive: -6.38% |
| CCOC(=O)[C@H](CCc1ccccc1)N[C@H]1CS[C@H](c2cccs2)CN(CC(=O)O)C1=O | inactive: -9.75% |
| Cc1ccccc1CCNC(=O)c1ccc(Cn2c(=O)c3cccn3c3cccnc32)cc1 | inactive: -26.3% |
| CCc1ccc(NC(=O)c2cc(S(=O)(=O)N3CCCC(C)C3)cn2C)cc1 (stereo not drawn) | inactive: -5.48% |
| O=C(NCc1ccccc1Cl)c1ccccc1NC(=O)c1nsc2ccccc12 | inactive: -22.7% |
| COc1cc(OC)c(NC(=O)c2cnn(-c3ccccc3)c2-n2cccc2)cc1Cl | inactive: -13.5% |
| CCOc1cc(-c2nc(-c3ccc(-c4ccccc4)nc3OCC)no2)cc(OCC)c1OCC | inactive: -10.6% |
| CCC(=O)N1CCc2cc(Br)cc(S(=O)(=O)Nc3ccccc3C(=O)OC)c21 | inactive: -5.44% |
| COCCCNC(=O)c1cc2c(-c3cccc(OC)c3)nn(C)c2s1 | inactive: -15.5% |
| O=C(CSc1nccn1Cc1ccc(Cl)cc1)Nc1nc2ccccc2s1 | inactive: -10.8% |
| CN(C)c1ccc(C(CNS(=O)(=O)c2ccc(F)cc2F)N2CCOCC2)cc1 (stereo not drawn) | inactive: -15.3% |
| CCc1ccc(CN(Cc2cn[nH]c2-c2ccc(OC)cc2)C(=O)Nc2ccc(Br)cc2)cc1 | inactive: -5.82% |
| CCN(CC)C(=O)CSc1nc2cc3c(cc2c(=O)n1CCCC(=O)NCc1ccc(OC)cc1)OCO3 | inactive: 0.386% |
| Cc1ccc(CCNC(=O)CN(c2ccc(C(C)C)cc2)S(=O)(=O)c2c(C)nn(C)c2C)cc1 | inactive: -14.4% |
| CCOC(=O)c1c(NC(=O)c2ccc(S(=O)(=O)N(CC)CC)cc2)sc2c1CCCCC2 | inactive: -2.44% |
| O=C(Nc1cccc(C(F)(F)F)c1)Nc1ccc2snnc2c1 | inactive: -33.5% |
| Cc1cc(S(=O)(=O)Nc2ccc(O)c(Sc3nc4ccccc4s3)c2)ccc1Cl | inactive: -4.03% |
| Cc1ccc(C(=O)N2CCCCC2CCN2CCCCC2)cc1 (stereo not drawn) | inactive: -10.3% |
| CCn1c(SCC(=O)Nc2c(C)cccc2C)nnc1-c1nonc1NC(C)=O | inactive: -1.46% |
| O=C(NCCC1=CCCCC1)c1ccc2c(c1)N(Cc1ccccc1)C(=O)c1ccccc1S2=O (stereo not drawn) | inactive: -1.6% |
| CN(C)c1nc(N(C)C)nc(N(C)C)n1 | inactive: -17% |
| COc1cc(NS(=O)(=O)c2cc(Br)cc3c2N(C(=O)C2CC2)CC3)cc(OC)c1 | inactive: -5.42% |

| Compound | activation |
| --- | --- |
| COc1ccccc1N1CCN(C(=O)CSc2nc3ccccc3nc2Cc2ccc(C)cc2)CC1 | inactive: -4.11% |
| COc1ccc(-c2csc(-c3c(N)c(C(=O)c4ccccc4)n4ccccc34)n2)cc1OC | inactive: -5.88% |
| CCS(=O)(=O)c1cccc(C(=O)Nc2ccc(-c3nc4ccccc4s3)c(O)c2)c1 | inactive: -17.3% |
| Cc1cccc(NC(=O)Cn2c(=O)c3cccn3c3ccccc32)c1C | inactive: -11.9% |
| Cc1ccc(O)cc1 | inactive: -17.3% |
| CC1CCN(C(=O)Cn2c(SCC(=O)Nc3ccc(F)cc3)nc3ccccc32)CC1 | inactive: -17% |
| Cc1ccc(CN2CCN(C3CCN(S(=O)(=O)N(C)C)CC3)C(=O)C2=O)cc1 | inactive: -11.8% |
| COc1ccc(OC)c(CNC(=O)CSc2c3c(nc4cc(Cl)ccc24)CCCC3)c1 | inactive: -5.43% |
| CCN(CCCNC(=O)c1nn(-c2ccc(OC)c(Cl)c2)c(=O)c2c1c1ccccc1n2C)c1ccccc1 | inactive: -7.35% |
| CC(C)NC(=O)C1CCN(C(=O)c2cnn(-c3ccccc3)c2-n2cccc2)CC1 | inactive: -9.36% |
| Cc1nc2c(C(=O)NCCc3ccc(Cl)cc3)cnn2c(C)c1Cc1ccc(F)cc1 | inactive: -2.61% |
| COc1ccc(N2C(N)=C(C#N)C(c3cc(CN4CCOCC4)cs3)C3=C2CCCC3=O)cc1 (stereo not drawn) | inactive: -17% |
| Cc1ccc(NS(=O)(=O)c2ccc3c(c2)C(C(C)C)C(=O)N3)cc1C (stereo not drawn) | inactive: -20.8% |
| CCN(Cc1ccccc1)C(=O)Cn1c(=O)n(-c2cccc(C)c2)c(=O)c2c1c1cc(OC)ccc1n2C | inactive: 2.17% |
| CCOC(=O)C1=C(CN2CCN(C)CC2)NC(=O)NC1c1ccc(F)cc1 (stereo not drawn) | inactive: -14.1% |
| CC(C)c1ccc(OCC(=O)NCC(c2ccc(Cl)cc2)N2CCOCC2)cc1 (stereo not drawn) | inactive: -9.35% |
| CCCSc1nc2sc3c(c2c(=O)n1-c1ccc(C)c(Cl)c1)CCN(C(C)=O)C3 | inactive: -16.5% |
| Cn1nc(C(=O)NCCc2ccc(Cl)cc2)c2c1-c1ccccc1SC2 | inactive: -10.7% |
| CN(C(=O)c1cc2nc(-c3ccc4c(c3)OCO4)cc(C(F)(F)F)n2n1)c1ccc(OC(F)(F)F)cc1 | inactive: -15.2% |
| COc1ccc(NS(=O)(=O)c2ccc(-n3cccn3)cc2)cc1OC | inactive: -40% |
| COc1ccccc1N1CCN(C(=O)c2ccc(Nc3nc4ccccc4n4nnnc34)cc2)CC1 | inactive: -9.22% |
| CCn1c(=O)n(CC)c2cc(N3CCCC3)c(NC(=O)Nc3cc(C)cc(C)c3)cc21 | inactive: -14.4% |
| COc1ccc(S(=O)(=O)c2c(O)c(C)cc(NC(=O)c3ccccc3)c2C(C)C)cc1 | inactive: -17.9% |
| O=C(Nc1ccccc1F)c1oc2ccccc2c1NC(=O)c1c(F)cccc1F | inactive: -2.04% |
